Among all 310,000 compounds or so, about 2,200 (0.71%) showed an effect of 50% or more. The effect is printed as a negative number. The list shows a part of the results.
Molecular target: human ether-à-go-go-related gene (hERG) potassium channel (human, UniProt Q12809)
Assay: primary screen, population patch clamp on CHO cells stably expressing hERG

human ether-à-go-go-related gene (hERG) potassium channel, sequence (Q12809 whole entry, looked up): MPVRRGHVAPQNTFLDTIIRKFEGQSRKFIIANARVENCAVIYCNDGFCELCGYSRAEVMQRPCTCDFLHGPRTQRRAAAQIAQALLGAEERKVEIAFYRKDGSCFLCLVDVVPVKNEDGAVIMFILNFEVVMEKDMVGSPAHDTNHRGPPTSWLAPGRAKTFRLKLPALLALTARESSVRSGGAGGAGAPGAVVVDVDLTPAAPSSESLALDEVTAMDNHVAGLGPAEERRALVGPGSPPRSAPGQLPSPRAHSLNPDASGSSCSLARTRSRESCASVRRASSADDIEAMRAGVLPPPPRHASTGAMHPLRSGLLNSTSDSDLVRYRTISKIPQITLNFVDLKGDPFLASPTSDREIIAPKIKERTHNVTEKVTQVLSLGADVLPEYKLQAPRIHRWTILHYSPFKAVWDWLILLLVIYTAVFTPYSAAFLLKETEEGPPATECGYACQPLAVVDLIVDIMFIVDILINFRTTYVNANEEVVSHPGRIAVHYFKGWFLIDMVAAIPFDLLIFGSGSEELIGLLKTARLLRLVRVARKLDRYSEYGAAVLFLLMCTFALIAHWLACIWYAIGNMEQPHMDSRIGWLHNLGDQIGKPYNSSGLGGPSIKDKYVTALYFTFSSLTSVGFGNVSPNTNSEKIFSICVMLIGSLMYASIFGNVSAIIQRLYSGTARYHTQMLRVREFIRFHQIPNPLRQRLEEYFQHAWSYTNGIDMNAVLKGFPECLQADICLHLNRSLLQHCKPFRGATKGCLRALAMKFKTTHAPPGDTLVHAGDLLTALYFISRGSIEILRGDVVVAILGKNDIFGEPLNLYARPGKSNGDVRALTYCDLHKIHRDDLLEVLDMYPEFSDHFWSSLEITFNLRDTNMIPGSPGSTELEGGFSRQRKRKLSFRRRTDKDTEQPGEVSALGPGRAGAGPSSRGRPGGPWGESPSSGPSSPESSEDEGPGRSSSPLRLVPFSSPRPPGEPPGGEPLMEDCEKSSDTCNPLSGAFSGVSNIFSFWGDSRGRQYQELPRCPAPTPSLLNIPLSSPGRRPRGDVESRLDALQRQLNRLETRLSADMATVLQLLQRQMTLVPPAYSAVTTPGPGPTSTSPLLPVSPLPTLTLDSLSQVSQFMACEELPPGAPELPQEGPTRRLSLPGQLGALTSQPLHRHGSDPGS

SMILES	hERG current change (%, negative = inhibition) at 1uM [%]
CCCn1c(=O)c(C(=O)N/N=C/c2ccccc2F)c(O)c2ccccc21	12.1
Cc1ccc(NC(=O)c2ccc(S(=O)(=O)C(F)F)cc2)c(C)c1	-4.11
COc1ccc2cc(S(=O)(=O)N3CCCCCC3)ccc2c1	11
Cc1ccc(CN2CN(S(=O)(=O)c3cccs3)c3nc4ccccc4nc32)cc1	9.27
Cc1csc(SCC(=O)Nc2nncs2)n1	4.89
O=P(Cc1ccncc1)(c1ccccc1)c1ccccc1	3.46
Cc1cc(C)n(S(=O)(=O)c2ccc(C)c(C)c2)n1	9.86
C=CCNC(=S)Nc1ccc(Cl)cc1F	19.2
COc1ccc(CCn2c(C)cc(C(=O)COC(=O)c3cnc(C)cn3)c2C)cc1	-5.52
COc1ccc(NC(=O)c2ccco2)cc1S(=O)(=O)N1CCCCC1	-22.3
CCC1(O)CC(C(=O)OC)=NN1C(=O)c1ccccc1 (centres unmarked)	11.5
O=C(COc1ccc(/C=N/NC(=O)c2ccc(O)cc2)cc1)Nc1ccc([N+](=O)[O-])cc1	9.71
COc1ccc(-c2cc(C(=O)NCCCn3ccnc3)c3ccccc3n2)c(OC)c1	6.7
CC(C)=C(NC(=O)c1ccccc1)C(=O)N1CCOCC1	6.8
COc1ccccc1N1CCN(c2ccc(N3C(=O)CCC3=O)cc2[N+](=O)[O-])CC1	12.9
COc1ccccc1N1CCN(S(=O)(=O)Cc2ccccc2Cl)CC1	11.9
CCOC(=O)C1(Cc2ccccc2)CCN(Cc2nccn2CC)CC1	8.81
COc1cc(NC(=O)c2cccs2)c(OC)cc1NC(=O)CCC(=O)Nc1cccc2ncccc12.Cl	6.33
C/C(=N/NC(=O)c1cccs1)c1ccc(N2CCOCC2)cc1	13.5
CC1(C)CC(CCNC(=O)CCl)(c2ccccc2)CCO1 (centres unmarked)	16.4
O=C(N/N=C/C=C/c1ccccc1[N+](=O)[O-])c1cc(-c2cccnc2)nc2ccccc12	-0.706
Cc1ccc(/C=N/NC(=O)Cn2nc(C)c([N+](=O)[O-])c2C)o1	12.6

SMILES	hERG current change (%, negative = inhibition) at 1uM [%]
COC(=O)c1sc(C(F)(F)F)c(-c2ccccc2)c1S(=O)(=O)NC(C)(C)C	6.34
CC1=C(C(=O)OC(C)C)C(c2coc3ccccc3c2=O)C2=C(CCCC2=O)N1 (centres unmarked)	13.8
Cc1onc(-c2ccccc2)c1C(=O)N/N=C/C=C/c1ccccc1	12.9
CC(C)NC(=O)CN(Cc1ccc2c(c1)OCO2)C(=O)CCC(=O)Nc1ccccn1	9.94
Cc1cc(C)n(-c2nc3c(c(=O)[nH]c(=O)n3C)n2Cc2ccc(F)cc2)n1	2.14
Cc1c(Cl)c([N+](=O)[O-])nn1Cc1ccc(C(=O)NN)o1	1.95
Cc1cc(C)c2[nH]c(=O)c(CN(CC3CCCO3)C(=O)c3cnccn3)cc2c1 (centres unmarked)	-12.6
O=C(Nc1cccc(C(F)(F)F)c1)Nn1cnnc1	19
COc1ccc(CNC(=O)CNC(=O)c2cccs2)c(OC)c1	15.9
O=C(CN(CCc1ccccc1)S(=O)(=O)c1ccc(Cl)cc1)N/N=C/c1ccccc1C(=O)O	10.3
Cc1ccc(C2=N/C(=C\c3cccnc3)C(=O)O2)cc1	3.52
COc1ccc(C(=O)C2CCCN(Cc3cnc(N4CCOCC4)s3)C2)cc1F (centres unmarked)	-17.9
Cc1cc(NC(=O)c2ccc3c(c2)C(=O)N(Cc2cccnc2)C3=O)no1	16.6
COc1ccccc1CNC(=O)CSc1nc2c(oc3ccccc32)c(=O)n1CC1CCCO1 (centres unmarked)	6.02
O=C(N/N=C/c1ccc(Cl)c([N+](=O)[O-])c1)c1cc(-c2ccccc2)nc2ccccc12	14.1
COc1cc(/C=N/NC(=O)COc2ccc(Cl)cc2)ccc1OS(=O)(=O)c1ccc(C)cc1	17.4
O=C(Nc1ccc2c(c1)CCC2)c1cccc(F)c1	2.91
COc1ccc(CNC(=O)COC(=O)/C=C/c2cccc(Br)c2)cc1	14.8
CCCCCOC(=O)c1cc(=O)[nH]c2ccccc12	11.9
COc1cc(NS(=O)(=O)c2ccc(NC(=S)NC(=O)c3ccccc3)cc2)nc(OC)n1	2.03
Cc1cc(=O)n2nc(N3CCCC3C(=O)Nc3ccc(C(C)C)cc3)sc2n1 (centres unmarked)	4.13
O=C(CC1Nc2ccccc2NC1=O)Nc1cc(Cl)cc(Cl)c1 (centres unmarked)	6.36
